This is one part of the list. The full chains were built here from the parent and the listed change. Values near 0.05 are background.
B1: TEV protease; numbered along this chain (parent)
chain: MGESLFKGPRDYNPISSSICHLTNESDGHTTSLYGIGFGPFIITNKHLFRRNNGTLVVQSLHGVFKVKDTTTLQQHLVDGRDMIIIRMPKDFPPFPQKLKFREPQREERICLVTTNFQTKSMSSMVSDTSCTFPSGDGIFWKHWIQTKDGQCGSPLVSTRDGFIVGIHSASNFTNTNNYFTSVPKNFMELLTNQEAQQWVSGWRLNADSVLWGGHKVFMVKPEEPFQPVKEATQL

Variants of: B1
Assay: raw area under fraction-flipped curve 0-4 h after induction (AUC4h, not background-subtracted), DNA-recorder readout of cleavage of the substrate (dimensionless); higher = more cleavage of the substrate by the protease variant
Details: temperature: 34 °C; time window: 0-4 h after rhamnose induction
Experimental: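 In vivo DNA recorder in E. coli TOP10(DE3) ΔrhaA at 34 °C. Each TEVp single-site mutant (parent TEVp 0) is paired with a single-site variant of the 7-mer TEVs (canonical ENLYFQ|S). The substrate sits between flexible linkers in a Bxb1-sfGFP-TEVs-SsrA fusion, so cleavage stabilises Bxb1 and speeds flipping of a recombination array, read by NGS. The value is the raw area under the fraction-flipped curve over 0-4 h after rhamnose induction (AUC4h), with ≥20 reads per time point. It is not background-subtracted; inactive controls average about 0.047.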
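Note: Bxb1 expression induced with 0.2% (w/v) L-rhamnose at OD600 near 0.5, cultures sampled hourly, flipped fraction per protease–substrate barcode pair counted by paired-end Illumina sequencing.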

| Variant | area with substrate ENLYFCS | area with substrate ENLYFDS | area with substrate ENLYFFS | area with substrate ENLYFHS | area with substrate ENLYFIS | area with substrate ENLYFKS | area with substrate ENLYFNS | area with substrate ENLYFPS | area with substrate ENLYFRS | area with substrate ENLYFSS | area with substrate ENLYFTS | area with substrate ENLYFWS | area with substrate ENLYFES | area with substrate ENLYFGS | area with substrate ENLYFLS | area with substrate ENLYFMS | area with substrate ENLYFVS | area with substrate ENLYFYS |
| --- | --- | --- | --- | --- | --- | --- | --- | --- | --- | --- | --- | --- | --- | --- | --- | --- | --- | --- |
| T55I | 0.042 | 0.0593 | 0.0816 | 0.0546 | 0.0491 | 0.0595 | 0.0736 | 0.0566 | 0.056 | 0.0612 | 0.0549 | 0.0576 | – | – | – | – | – | – |
| L48H | 0.0574 | – | 0.0665 | 0.0527 | 0.0551 | 0.061 | 0.0611 | 0.0482 | – | 0.0588 | 0.0582 | 0.0545 | 0.0523 | 0.057 | 0.0416 | 0.0641 | 0.0187 | – |
| P228N | 0.0621 | – | 0.0758 | – | 0.0639 | 0.0549 | 0.0675 | 0.0565 | – | 0.053 | 0.0635 | 0.0698 | 0.0684 | – | 0.064 | 0.0682 | – | 0.0574 |
| Q198V | 0.0632 | – | 0.0588 | – | 0.0566 | 0.0856 | 0.074 | 0.0551 | 0.0604 | – | 0.06 | 0.0723 | – | – | 0.049 | 0.0622 | – | – |
| T159Y | 0.0721 | 0.0567 | 0.0462 | 0.0651 | 0.0646 | – | – | 0.0589 | 0.0616 | 0.063 | – | 0.0562 | 0.0721 | 0.0865 | 0.0534 | 0.0652 | – | 0.0795 |
| R51M | 0.0615 | – | 0.0684 | 0.0747 | 0.0649 | – | 0.0607 | 0.0712 | 0.0533 | – | 0.0585 | 0.0481 | 0.0595 | – | – | 0.0716 | – | – |
| Q197C | 0.0529 | – | 0.067 | – | 0.0702 | – | 0.0589 | – | 0.0519 | 0.0604 | 0.0588 | 0.0597 | 0.0647 | – | 0.0487 | 0.0669 | – | – |
| V165D | 0.0545 | – | 0.0649 | 0.0551 | 0.0536 | – | – | 0.0629 | 0.0496 | 0.0324 | – | – | 0.0471 | – | 0.0589 | – | – | 0.0377 |
| R204E | 0.0754 | – | – | 0.0689 | 0.0631 | 0.0646 | 0.071 | 0.0427 | – | – | 0.0465 | – | – | – | 0.0612 | 0.0697 | 0.0545 | – |
| L73G | 0.0537 | 0.0525 | 0.0478 | – | 0.0543 | 0.0404 | – | 0.0456 | 0.0446 | 0.0431 | 0.0516 | 0.0408 | – | 0.0454 | – | 0.0247 | – | 0.0426 |
| A232P | 0.0601 | 0.0548 | – | 0.0598 | 0.0542 | 0.0687 | 0.0695 | – | – | 0.0709 | – | – | 0.0776 | – | – | 0.0745 | – | 0.0589 |
| W144T | 0.0585 | – | 0.0693 | 0.0581 | 0.0763 | 0.0566 | 0.0727 | – | 0.058 | – | 0.0601 | 0.0924 | – | 0.0463 | – | – | – | – |
| R109C | 0.0524 | 0.0585 | 0.063 | – | 0.0475 | – | 0.0771 | 0.0624 | 0.0573 | 0.06 | – | 0.0624 | 0.075 | 0.0359 | – | 0.0754 | 0.0853 | 0.0601 |
| R109P | 0.0665 | 0.0567 | 0.0663 | 0.0595 | 0.0559 | – | 0.0655 | 0.0564 | – | 0.0649 | 0.0674 | 0.0626 | 0.059 | – | – | 0.0833 | 0.05 | 0.0356 |
| I85F | 0.069 | 0.052 | 0.0489 | 0.0546 | 0.0568 | – | – | – | 0.0583 | – | – | – | 0.0635 | – | – | 0.0603 | – | 0.0535 |
| I85C | 0.0487 | 0.0684 | 0.0614 | 0.0405 | 0.0644 | 0.0581 | – | 0.0529 | – | – | 0.0545 | 0.0635 | 0.0607 | 0.0441 | 0.0388 | 0.0652 | – | 0.0686 |
| N24K | – | 0.0647 | 0.0656 | 0.0372 | 0.0592 | 0.0732 | 0.0612 | 0.0624 | 0.0599 | – | 0.0574 | 0.0469 | 0.0591 | – | 0.0503 | 0.0613 | 0.0658 | 0.0517 |
| M122K | 0.069 | – | 0.0658 | 0.0514 | 0.0595 | – | – | 0.0549 | – | – | 0.059 | 0.0559 | 0.0654 | – | – | 0.081 | 0.0563 | – |
| M122Y | 0.0606 | – | 0.0726 | 0.0595 | 0.0527 | 0.0581 | – | 0.0653 | 0.07 | 0.0516 | 0.0585 | 0.0574 | 0.0612 | – | 0.0767 | 0.0674 | 0.0701 | 0.0642 |
| L99S | 0.0485 | 0.0612 | 0.055 | – | 0.0585 | 0.0488 | 0.0581 | 0.0572 | 0.0542 | – | 0.0508 | 0.0592 | – | – | – | 0.0495 | 0.0496 | – |
| G202N | 0.0499 | – | 0.0761 | – | 0.0541 | 0.0632 | – | 0.0614 | – | 0.0647 | 0.0632 | 0.0626 | – | – | – | 0.0739 | 0.0705 | 0.0579 |
| S169A | 0.0554 | – | – | 0.0494 | 0.0518 | 0.0527 | – | 0.0965 | – | – | 0.0631 | 0.0356 | 0.0639 | – | 0.0473 | 0.0637 | 0.0466 | – |
| R106I | 0.0736 | – | 0.0715 | – | 0.0695 | – | – | 0.0604 | – | 0.0647 | 0.0601 | 0.0685 | 0.0633 | – | – | 0.0678 | – | – |
| R160A | 0.0724 | 0.0262 | 0.0674 | 0.0537 | 0.0561 | 0.0569 | 0.0561 | 0.0457 | – | 0.0658 | – | 0.0582 | 0.0741 | 0.064 | – | 0.0661 | 0.0732 | – |
| G63F | 0.0539 | 0.0404 | 0.0654 | – | 0.0574 | 0.0503 | 0.0573 | 0.053 | – | 0.0295 | 0.0603 | 0.0511 | – | 0.0628 | – | 0.0607 | 0.0715 | – |
| H62N | 0.0471 | – | 0.0761 | – | 0.0615 | – | – | – | 0.059 | 0.065 | 0.0497 | 0.0675 | 0.0648 | – | 0.0587 | 0.0324 | – | 0.044 |
| K148T | 0.0568 | 0.0661 | 0.0689 | – | 0.0528 | – | 0.0516 | – | 0.0882 | – | 0.0623 | 0.0581 | 0.0375 | 0.0412 | – | 0.0614 | 0.0605 | – |
| Y34C | – | 0.0445 | 0.0553 | 0.0516 | 0.0514 | – | 0.0644 | 0.069 | – | 0.0723 | 0.0564 | 0.0685 | – | 0.0541 | 0.0546 | 0.0658 | 0.0898 | 0.052 |

Reference: the supplement of paper PMC12217912
